Test results as given in the supplement of paper PMC11417369.
± gives the standard deviation of the averaged measurements. The list shows a part of the results.

Test system: PfAP2-G AP2 domain (GST-tagged)
Experiment: gcPBM binding intensity (ln(normalized median fluorescence intensity)); higher = stronger DNA binding
Outline: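 Plasmodium falciparum DNA-binding domains carrying a GST tag were expressed in E. coli and applied for 1 h, at about 25 μg on average, to an Agilent 4 × 180k array. The array held primer-extended double-stranded 36-bp intergenic genomic probes together with negative controls, and binding took place in 1× PBS with 1% milk, 0.2 mg/ml BSA, 0.5% salmon testes DNA and 0.03% Triton X-100. An Alexa488 anti-GST antibody detected bound protein, and the array was scanned at 488 nm. Binding intensity is taken as the highest Masliner-normalised natural-log median intensity across replicate spots of either probe orientation.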

Row | Sequence | gcPBM binding intensity (ln)
1 | GCTATAAATACAGACGCACACATATACATACATATA [CACACA_site3329] | 10.4 ± 0.2
2 | TAATGAAGATATATAACACACAAAAGTTATAAATAT [CACACA_site6678] | 9.77 ± 0.057
3 | ATATATAATAATATATGTACATAATATTTTTTTTTT [XGTACX_site1941] | 11.3 ± 0.73
4 | GCCATTAATTTATACACACACATTAAAATTTTTTAT [CACACA_site4575] | 10.2 ± 0.13
5 | AACGCCACTTCAATGGCACACACCAATTATTTTTCA [CACACA_site1026] | 10.14 ± 0.099
6 | TTTCTCCATATTAAAGTGCATTAATAACAAAAATAA [GTGCAC_site9934] | 10.2 ± 0.59
7 | TATCCTACATTAACAAGTACAAAGAGATCCTACGTA [XGTACX_site4252] | 11 ± 0.6
8 | AAGAATATATAGGACACACATACAATAATAAATATA [CACACA_site4119] | 10.7 ± 0.54
9 | TATATACAGATATATACACACATATTTATATTTTAT [CACACA_site7734] | 9.72 ± 0.2
10 | GTATAGAGAAAAAACTGTACTTTATATAAATATTTA [XGTACX_site3972] | 11.2 ± 0.76
11 | TATTAATAATATAATAGTACTTTCACTGTAAATTTA [XGTACX_site6419] | 10.8 ± 0.38
12 | TCATTCGAATAAATTGCACACATGACATCCGTTGTA [CACACA_site2587] | 9.88 ± 0.13
13 | AAAAAAAAAAAAAATATACACACTAATATATTTTTT [CACACA_site815] | 9.9 ± 0.11
14 | ATATATATATTAATTACACACAAAAAAAAAAAAAAA [CACACA_site1165] | 9.93 ± 0.54
15 | CTTTTTTTTATGAACAGTACAGAAATATATATATAC [XGTACX_site5613] | 10.9 ± 0.6
16 | TTTATATAATGGAAAAGTACTCAGGAAATTTATACA [XGTACX_site3635] | 11.2 ± 0.73
17 | CATATCTCTTATTAATGTACATTTTTAAAAGTAAAT [XGTACX_site2847] | 11 ± 0.69
18 | CAAGAACAAAAAATATGTACATATAATTATATATAT [XGTACX_site2082] | 11.3 ± 0.97
19 | TGTAATATTTTATAAAGTACATTATAATATAATTCA [XGTACX_site2961] | 11 ± 0.76

Row | Sequence | gcPBM binding intensity (ln)
20 | TTAAAATTAAAAATAGGTACACATATGAACAAGGAC [XGTACX_site1180] | 11.5 ± 0.78
21 | TTATATGATATATGACGTACATATTAATAACATCTA [XGTACX_site6716] | 11.4 ± 0.99
22 | TTGTTCCAATAAAATCGTACAATTAAACAACCAAAC [XGTACX_site5759] | 11.2 ± 0.7
23 | TTTTTTTCTATAATACACCAGAAAAAAAAATTAAAA [TGCATGCA_negctrl_site257] | 10.2 ± 0.38
24 | AGATTGAAATATAGTTGTACAAATATTTTAAAACAT [XGTACX_site3026] | 11.3 ± 0.86
25 | CAATCAACAAAACATACACACACATATATATATATA [CACACA_site8979] | 10.1 ± 0.23
26 | AACATATTTTTTTGTTGTACTTACAATTATAAGCAT [XGTACX_site3056] | 11.6 ± 1
27 | TATACCAAATATATGGGTACACAAATATGTTTATTC [XGTACX_site8932] | 11.6 ± 0.89
28 | TAATTAATCGATTTACGCACATGAACAAAAGCACAT [CACACA_negctrl_site1287] | 10.3 ± 0.24
29 | TTAAACATATATTAAGCACACACAAACAAAAAAACA [CACACA_site8816] | 10.2 ± 0.21
30 | ACTATTTTCTTCAAAACATGCACCACATAAACATAA [TGCATGCA_site200] | 10.6 ± 0.51
31 | ATTATTTATTTATGTGTGCGCATGTGTGTAAATATT | 10.6 ± 0.35
32 | TATAAAGCAACTGAAACACACAAATTTTTTTTTTTT [CACACA_site3218] | 9.7 ± 0.071
33 | GTAAATATTAATAAAAGTACATATGTAGCATATGGA [XGTACX_site5219] | 11.2 ± 0.67
34 | CCTTTTTTATTTACAACACACGTAAAGGTTCAAATA [CACACA_site1741] | 10.4 ± 0.35
35 | AGAAAAAAAAAAAATGCACACATTTTCATTGTCAGT [CACACA_site1935] | 9.85 ± 0.042
36 | ATATATATATATATGTGTACATATTTTTTTTTTTTT [XGTACX_site3425] | 11.4 ± 0.82
37 | AAAAAACACAGACATACACACAAAAAGGTTATAAAT [CACACA_site4222] | 10.05 ± 0.049
38 | ACAGAAAAAAGACACACACACATAATATACATACAT [CACACA_site6991] | 10.2 ± 0.11

Row | Sequence | gcPBM binding intensity (ln)
39 | TTTTTTTCGTAAAAAAAAATAATTATTAAATGAAGG [TGCATGCA_negctrl_site212] | 10.01 ± 0.099
40 | ATTTTTTAAATGAGGCGTACACAAAAATATAATTAC [XGTACX_site7087] | 11.7 ± 1.1
41 | TATATATATATATATACACACACACTAATAAAAAAA [CACACA_site8426] | 10.2 ± 0.3
42 | CTTAGATATAAAAATTGTACATACATATTTTTGACA [XGTACX_site2107] | 11.1 ± 0.63
43 | TTTATTTATTTTTAACGTACGCACACATATAAATAT [XGTACX_site4042] | 11.4 ± 0.72
44 | TAAACACCCATATAAACACACATATAAACACCCATA [CACACA_site5382] | 10.2 ± 0.3
45 | TATATACATTGGTATACATGCATTCTCTTTCATACA [TGCATGCA_site734] | 9.995 ± 0.007
46 | TAAAATTTATAAACTACACACATATAAATAGTAATA [CACACA_site7708] | 10.06 ± 0.064
47 | TATTATAAAATATACACATGCAAAAACAAAATTTAC [TGCATGCA_site1051] | 10.11 ± 0.092
48 | TATTTTTAATAAAAACGTACGGAATACAAAAAAAAT [XGTACX_site3477] | 11 ± 0.63
49 | AAAATTTAAAAATGGACACACACAAAAAATAATACT [CACACA_site7972] | 10.9 ± 0.49
50 | AACTTTTTACAAACAGGTACGCATATATATATATAT [XGTACX_site5081] | 11.1 ± 0.62
51 | AATAATTATTTGTATAGTACAATATACAAAAGATGA [XGTACX_site4312] | 10.9 ± 0.57
52 | GAAAAAAAAAAAAGGGGTACATTTATTTTATCAATA [XGTACX_site8331] | 11.5 ± 1
53 | TTTTTTTTTTTTTTTTTTTTTTTCTTTATTTTTTTT [CACACA_negctrl_site703] | 9.59 ± 0.25
54 | CACATACACATACAAACACACATTATATATATATAT [CACACA_site8460] | 10.3 ± 0.47
55 | CATCCATTATTAATATGTACATATGTATATATATTA [XGTACX_site1318] | 11.2 ± 0.74
56 | AAAATTAATAAATAAACACACATATTTATATTTATA [CACACA_site7266] | 9.495 ± 0.092
57 | TATAAATATAGACACACACACACACCGAAGCGTAGC [CACACA_site6180] | 10.2 ± 0.25
